Test results as given in the antibiotic and cytotoxicity screens of Wong et al. (2023).
This is one part of the list.

Assays:
HSkMC = human skeletal muscle cells; assay: cytotoxicity call (relative viability < 0.9); conditions: 10 µM
HepG2 = assay: cytotoxicity call (relative viability < 0.9); conditions: 10 µM
S. aureus RN4220 = assay: growth inhibition call (relative growth <= 0.2); conditions: 50 µM

Row | Structure (SMILES) | cytotoxicity call (HSkMC) | cytotoxicity call (HepG2) | growth inhibition call (S. aureus RN4220)
1 | CO[C@H]1O[C@H](CO)[C@@H](OC(=O)c2ccc(Br)cc2)[C@@H]2OC(=O)[C@H](Cc3cccc(Br)c3)C/C=C/C[C@@H](Cc3cccc(Br)c3)C(=O)O[C@@H]12 | inactive | inactive | inactive
2 | COc1ccc(CCNC(=O)[C@@]2(Sc3ccc(C)cc3)CC(=O)N(C3CCCCC3)[C@@H]2c2ccc(CO)cc2I)cc1 | inactive | inactive | inactive
3 | O=C1OCC=C[C@H]2O[C@@]34C=CCN(CCN5CCOCC5)C(=O)[C@H]3N(CCCCCCO)C(=O)[C@@H]4[C@@H]12 | inactive | inactive | inactive
4 | Cc1noc(C)c1S(=O)(=O)Nc1ccc2c(c1)C(=O)N([C@H](C)CO)C[C@H](C)[C@H](CN(C)Cc1ccc(Cl)c(Cl)c1)OCCCC[C@@H](C)O2 | inactive | inactive | inactive
5 | Cc1noc(C)c1NC(=O)Nc1ccc2c(c1)C(=O)N([C@H](C)CO)C[C@@H](C)[C@@H](CN(C)Cc1ccc(C(=O)O)cc1)OCCCC[C@H](C)O2 | inactive | inactive | inactive
6 | CCCCCC=CCC=CCC=CCC=CCCCC(=O)O | inactive | inactive | inactive
7 | COc1ccc(S(=O)(=O)N(C)C[C@H]2Oc3ccc(NC(=O)C4CC4)cc3CC(=O)N([C@@H](C)CO)C[C@H]2C)cc1 | inactive | inactive | inactive
8 | O=c1[nH]/c(=C/c2ccco2)c(=O)[nH]/c1=C\c1ccco1 | inactive | inactive | inactive
9 | CCNC(=O)[C@H]1[C@H](CO)[C@H]2Cn3c(ccc(-c4cccc(C(=O)N(C)C)c4)c3=O)[C@@H]1N2 | inactive | inactive | inactive
10 | COc1ccc(S(=O)(=O)Nc2ccc3c(c2)C(=O)N([C@@H](C)CO)C[C@@H](C)[C@H](CN(C)Cc2ccc(C(F)(F)F)cc2)OCCCC[C@@H](C)O3)cc1 | active | active | inactive
11 | Cc1ccc(S[C@]2(C(=O)NC(C)C)CC(=O)N(Cc3ccccc3C(F)(F)F)[C@@H]2c2ccc(CO)cc2I)cc1 | inactive | inactive | inactive
12 | COc1ccc(CN(C)C[C@@H]2OCCCC[C@H](C)Oc3ccc(NC(=O)NC(C)C)cc3C(=O)N([C@H](C)CO)C[C@@H]2C)cc1 | inactive | inactive | inactive
13 | C[C@@H]1CN([C@H](C)CO)S(=O)(=O)c2ccc(C#CCN(C)C)cc2O[C@H]1CN(C)C(=O)C1CCCCC1 | inactive | inactive | inactive
14 | COc1ccc(-c2cc(=O)c3c(O)cc(O)cc3o2)cc1 | inactive | active | inactive
15 | COc1ccc(S(=O)(=O)N(C)C[C@H]2OCCCC[C@H](C)Oc3ccc(NC(=O)CCC(F)(F)F)cc3C(=O)N([C@H](C)CO)C[C@@H]2C)cc1 | inactive | inactive | inactive
16 | CC(C(=O)O)c1ccc2c(c1)Cc1cccnc1O2 (stereo not drawn) | inactive | inactive | inactive
17 | Cc1[nH]c(=O)[nH]c(=O)c1S(=O)(=O)N1CCOCC1 | inactive | inactive | inactive
18 | C[C@@H]1CN([C@@H](C)CO)C(=O)c2c(c3ccccc3n2C)-c2ccccc2CO[C@@H]1CN(C)Cc1cccc(F)c1 | inactive | inactive | inactive
19 | C[C@@H]1CCCCO[C@H](CN(C)S(=O)(=O)c2ccccc2)[C@@H](C)CN([C@H](C)CO)C(=O)c2cc(NC(=O)Nc3cccc4ccccc34)ccc2O1 | inactive | inactive | inactive
20 | C[C@H](CO)N1C[C@H](C)[C@@H](CN(C)S(=O)(=O)c2cccs2)Oc2ccc(NC(=O)Cc3ccccc3)cc2CC1=O | inactive | inactive | inactive
21 | O=C(C[C@H]1CC[C@@H]2[C@H](COC[C@@H](O)CN2C(=O)Nc2ccc(Cl)c(Cl)c2)O1)NCc1ccc(Cl)c(Cl)c1 | inactive | inactive | inactive
22 | CC(C)CC#Cc1ccc2c(c1)O[C@H](CN(C)C(=O)Cc1ccncc1)[C@H](C)CN([C@H](C)CO)S2(=O)=O | inactive | inactive | inactive
23 | C[C@@H]1CCCCO[C@@H](CN(C)Cc2ccc(C(F)(F)F)cc2)[C@H](C)CN([C@H](C)CO)C(=O)c2cc(NC(=O)c3ccncc3)ccc2O1 | inactive | inactive | inactive
24 | CN1C2=CC(=O)/C(=N\NC(N)=O)C=C2C[C@H]1S(=O)(=O)O | inactive | inactive | inactive
25 | CCn1cc(-c2ccnc3[nH]c(-c4cccc(CN(C)C)c4)cc23)c(-c2ccc(NC(=O)N(C)C)cc2)n1 | active | active | inactive
26 | C[C@H]1CN([C@@H](C)CO)C(=O)c2cccc(NC(=O)C3CC3)c2O[C@@H]1CN(C)S(=O)(=O)c1cn(C)cn1 | inactive | inactive | inactive
